# Results reported in patent US20140031278A1, “Novel Glucagon Analogues” (NOVO NORDISK A/S, priority 2011, published 2014).
# For at least one compound, name, drawing or mass did not settle the structure. *1 amine or outer side, *2 acyl side, *3 side chain or, on linkers, in order; H or OH if unused. Where a SMILES comes first, the peptide text is derived from it. Side-chain parts run from the residue outwards. γGlu = O=C(O)[C@H](CCC(=O)[*:2])N[*:1]
# Experiment: ThT fibrillation assay for physical stability (lag time, recovery)
# Format: physicochemical
# Conditions: for ThT assay [Lag time]: absence of increased ThT fluorescence noted as lag time of 45 hours; for ThT assay [Recovery]: peptide concentration in filtered supernatant after ThT assay as percentage of initial
# From the text: This has traditionally been measured by visual inspection of the sample. However, that kind of measurement is very subjective and depending on the observer. Therefore, the application of a small molecule indicator probe is much more advantageous. […] Enzymol.
# Here, F is the ThT fluorescence at the time t.
# The lag-time corresponds to the interval in which the critical mass of nucleus is built up and the apparent rate constant is the rate with which the fibril itself is formed.
# Samples were prepared freshly before each assay. […] The pH of the sample was adjusted to the desired value using appropriate amounts of concentrated NaOH and HCl.
# The plate was sealed with Scotch Pad (Qiagen).
# Each run was initiated by incubating the plate at the assay temperature for 10 min. The plate was measured every 20 minutes for a desired period of time. Between each measurement, the plate was shaken and heated as described.
# The supernatant was filtered through a 0.22 μm filter and an aliquot was transferred to a HPLC vial.
# The data set may be fitted to Eq. (1).
Structure (SMILES),ThT assay [Lag time],ThT assay [Recovery]
"CC(=O)N[C@@H](CCC(=O)N[C@@H](CCC(=O)N[C@@H](CCC(=O)N[C@@H](CCC(=O)NCCCC[C@H](NC(=O)[C@@H](NC(=O)[C@H](Cc1ccccc1)NC(=O)[C@H](CCC(=O)O)NC(=O)[C@H](CCC(N)=O)NC(=O)[C@H](C)NC(=O)[C@H](CCCNC(=N)N)NC(=O)[C@H](CCCNC(=N)N)NC(=O)[C@H](CO)NC(=O)[C@H](CCC(=O)O)NC(=O)[C@H](CC(C)C)NC(=O)[C@H](Cc1ccc(O)cc1)NC(=O)[C@H](CCCCN)NC(=O)[C@H](CO)NC(=O)[C@H](Cc1ccc(O)cc1)NC(=O)[C@H](CC(=O)O)NC(=O)[C@H](CO)NC(=O)[C@@H](NC(=O)[C@H](Cc1ccccc1)NC(=O)[C@@H](NC(=O)CNC(=O)[C@H](CCC(N)=O)NC(=O)[C@H](CO)NC(=O)[C@@H](N)Cc1c[nH]cn1)[C@@H](C)O)[C@@H](C)O)C(C)C)C(=O)N[C@@H](Cc1c[nH]c2ccccc12)C(=O)N[C@@H](CC(C)C)C(=O)N[C@@H](CC(C)C)C(=O)N[C@@H](CO)C(=O)N[C@H](C(=O)O)[C@@H](C)O)C(=O)O)C(=O)O)C(=O)O)C(=O)O [Example 22, N^ε24-[(4S)-4-[[(4S)-4-[[(4S)-4-[[(4S)-4-acetamido-4-carboxybutanoyl]amino]-4-carboxybutanoyl]amino]-4-carboxybutanoyl]amino]-4-carboxybutanoyl]-[Glu15,Glu21,Lys24,Leu27,Ser28]-Glucagon] (H-HSQGTFTSDYSKYLESRRAQEFVK([γGlu-γGlu-γGlu-γGlu-Ac])WLLST-OH)",45 h,100%
"CC(=O)N[C@@H](CCC(=O)N[C@@H](CCC(=O)N[C@@H](CCC(=O)N[C@@H](CCC(=O)NCCCC[C@H](NC(=O)[C@@H](NC(=O)[C@H](Cc1ccccc1)NC(=O)[C@H](CC(=O)O)NC(=O)[C@H](CCC(N)=O)NC(=O)[C@H](C)NC(=O)[C@H](CCCNC(=N)N)NC(=O)[C@H](CCCNC(=N)N)NC(=O)[C@H](CO)NC(=O)[C@H](CCC(=O)O)NC(=O)[C@H](CC(C)C)NC(=O)[C@H](Cc1ccc(O)cc1)NC(=O)[C@H](CCCCN)NC(=O)[C@H](CO)NC(=O)[C@H](Cc1ccc(O)cc1)NC(=O)[C@H](CC(=O)O)NC(=O)[C@H](CO)NC(=O)[C@@H](NC(=O)[C@H](Cc1ccccc1)NC(=O)[C@@H](NC(=O)CNC(=O)[C@H](CCC(N)=O)NC(=O)[C@H](CO)NC(=O)[C@@H](N)Cc1c[nH]cn1)[C@@H](C)O)[C@@H](C)O)C(C)C)C(=O)N[C@@H](Cc1c[nH]c2ccccc12)C(=O)N[C@@H](CC(C)C)C(=O)N[C@@H](CC(C)C)C(=O)N[C@@H](CO)C(=O)N[C@H](C(=O)O)[C@@H](C)O)C(=O)O)C(=O)O)C(=O)O)C(=O)O [Example 23, N^ε24-[(4S)-4-[[(4S)-4-[[(4S)-4-[[(4S)-4-acetamido-4-carboxybutanoyl]amino]-4-carboxybutanoyl]amino]-4-carboxybutanoyl]amino]-4-carboxybutanoyl]-[Glu15,Lys24,Leu27,Ser28]-Glucagon]",45 h,100%
CC(=O)N[C@@H](CCC(=O)N[C@@H](CCC(=O)N[C@@H](CCC(=O)N[C@@H](CCC(=O)NCCCC[C@H](NC(=O)[C@@H](NC(=O)[C@H](Cc1ccccc1)NC(=O)[C@H](CC(=O)O)NC(=O)[C@H](CCC(N)=O)NC(=O)[C@H](C)NC(=O)[C@H](CCCNC(=N)N)NC(=O)[C@H](CCCNC(=N)N)NC(=O)[C@@H](NC(=O)[C@H](CC(=O)O)NC(=O)[C@H](CC(C)C)NC(=O)[C@H](Cc1ccc(O)cc1)NC(=O)[C@H](CCCNC(=N)N)NC(=O)[C@H](CO)NC(=O)[C@H](Cc1ccc(O)cc1)NC(=O)[C@H](CC(=O)O)NC(=O)[C@H](CO)NC(=O)[C@@H](NC(=O)[C@H](Cc1ccccc1)NC(=O)[C@@H](NC(=O)CNC(=O)[C@H](CCC(N)=O)NC(=O)[C@H](CO)NC(=O)[C@@H](N)Cc1c[nH]cn1)[C@@H](C)O)[C@@H](C)O)[C@@H](C)O)C(C)C)C(=O)N[C@@H](Cc1c[nH]c2ccccc12)C(=O)N[C@@H](CC(C)C)C(=O)N[C@@H](CC(C)C)C(=O)N[C@@H](CO)C(=O)N[C@H](C(=O)N1CCC[C@H]1C(=O)O)[C@@H](C)O)C(=O)O)C(=O)O)C(=O)O)C(=O)O [Example 26] (H-HSQGTFTSDYSRYLDTRRAQDFVK([γGlu-γGlu-γGlu-γGlu-Ac])WLLSTP-OH),45 h,100%
CC(=O)N[C@@H](CCC(=O)N[C@@H](CCC(=O)N[C@@H](CCC(=O)N[C@@H](CCC(=O)NCCCC[C@H](NC(=O)[C@@H](NC(=O)[C@H](Cc1ccccc1)NC(=O)[C@H](CC(=O)O)NC(=O)[C@H](CCC(N)=O)NC(=O)[C@H](C)NC(=O)[C@H](CCCNC(=N)N)NC(=O)[C@H](CCCNC(=N)N)NC(=O)[C@@H](NC(=O)[C@H](CC(=O)O)NC(=O)[C@H](CC(C)C)NC(=O)[C@H](Cc1ccc(O)cc1)NC(=O)[C@H](CCCCN)NC(=O)[C@H](CO)NC(=O)[C@H](Cc1ccc(O)cc1)NC(=O)[C@H](CC(=O)O)NC(=O)[C@H](CO)NC(=O)[C@@H](NC(=O)[C@H](Cc1ccccc1)NC(=O)[C@@H](NC(=O)CNC(=O)[C@H](CCC(N)=O)NC(=O)[C@H](CO)NC(=O)[C@@H](N)Cc1c[nH]cn1)[C@@H](C)O)[C@@H](C)O)[C@@H](C)O)C(C)C)C(=O)N[C@@H](Cc1c[nH]c2ccccc12)C(=O)N[C@@H](CC(C)C)C(=O)N[C@@H](CC(C)C)C(=O)N[C@@H](CO)C(=O)N[C@H](C(=O)O)[C@@H](C)O)C(=O)O)C(=O)O)C(=O)O)C(=O)O [Example 30],45 h,96%
"CC(=O)N[C@@H](CCC(=O)N[C@@H](CCC(=O)N[C@@H](CCC(=O)N[C@@H](CCC(=O)NCCCC[C@H](NC(=O)[C@@H](NC(=O)[C@H](Cc1ccccc1)NC(=O)[C@H](CC(=O)O)NC(=O)[C@H](CCC(N)=O)NC(=O)[C@H](C)NC(=O)[C@H](CCCNC(=N)N)NC(=O)[C@H](CCCNC(=N)N)NC(=O)[C@@H](NC(=O)[C@H](CCC(=O)O)NC(=O)[C@H](CC(C)C)NC(=O)[C@H](Cc1ccc(O)cc1)NC(=O)[C@H](CCCCN)NC(=O)[C@H](CO)NC(=O)[C@H](Cc1ccc(O)cc1)NC(=O)[C@H](CC(=O)O)NC(=O)[C@H](CO)NC(=O)[C@@H](NC(=O)[C@H](Cc1ccccc1)NC(=O)[C@@H](NC(=O)CNC(=O)[C@H](Cc1c[nH]cn1)NC(=O)[C@H](CO)NC(=O)[C@@H](N)Cc1c[nH]cn1)[C@@H](C)O)[C@@H](C)O)[C@@H](C)O)C(C)C)C(=O)N[C@@H](Cc1c[nH]c2ccccc12)C(=O)N[C@@H](CC(C)C)C(=O)N[C@@H](CC(C)C)C(=O)N[C@@H](CO)C(=O)N[C@H](C(=O)O)[C@@H](C)O)C(=O)O)C(=O)O)C(=O)O)C(=O)O [Example 31, N^ε24-[(4S)-4-[[(4S)-4-[[(4S)-4-[[(4S)-4-acetamido-4-carboxybutanoyl]amino]-4-carboxybutanoyl]amino]-4-carboxybutanoyl]amino]-4-carboxybutanoyl]-[His3,Glu15,Thr16,Lys24,Leu27,Ser28]-Glucagon] (H-HSHGTFTSDYSKYLETRRAQDFVK([γGlu-γGlu-γGlu-γGlu-Ac])WLLST-OH)",45 h,100%
"CC(=O)N[C@@H](CCC(=O)N[C@@H](CCC(=O)N[C@@H](CCC(=O)N[C@@H](CCC(=O)NCCCC[C@H](NC(=O)[C@@H](NC(=O)[C@H](Cc1ccccc1)NC(=O)[C@H](CC(=O)O)NC(=O)[C@H](CCC(N)=O)NC(=O)[C@H](C)NC(=O)[C@H](CCCNC(=N)N)NC(=O)[C@H](CCCNC(=N)N)NC(=O)[C@@H](NC(=O)[C@H](CC(=O)O)NC(=O)[C@H](CC(C)C)NC(=O)[C@H](Cc1ccc(O)cc1)NC(=O)[C@H](CCCCN)NC(=O)[C@H](CO)NC(=O)[C@H](Cc1ccc(O)cc1)NC(=O)[C@H](CC(=O)O)NC(=O)[C@H](CO)NC(=O)[C@@H](NC(=O)[C@H](Cc1ccccc1)NC(=O)[C@@H](NC(=O)CNC(=O)[C@H](Cc1c[nH]cn1)NC(=O)[C@H](CO)NC(=O)[C@@H](N)Cc1c[nH]cn1)[C@@H](C)O)[C@@H](C)O)[C@@H](C)O)C(C)C)C(=O)N[C@@H](Cc1c[nH]c2ccccc12)C(=O)N[C@@H](CC(C)C)C(=O)N[C@@H](CC(C)C)C(=O)N[C@@H](CO)C(=O)N[C@H](C(=O)O)[C@@H](C)O)C(=O)O)C(=O)O)C(=O)O)C(=O)O [Example 32, N^ε24-[(4S)-4-[[(4S)-4-[[(4S)-4-[[(4S)-4-acetamido-4-carboxybutanoyl]amino]-4-carboxybutanoyl]amino]-4-carboxybutanoyl]amino]-4-carboxybutanoyl]-[His3,Thr16,Lys24,Leu27,Ser28]-Glucagon] (H-HSHGTFTSDYSKYLDTRRAQDFVK([γGlu-γGlu-γGlu-γGlu-Ac])WLLST-OH)",45 h,96%
